Test results reported in PubChem BioAssay AID1460 (National Center for Advancing Translational Sciences (NCATS), 2008).
The whole screen tested about 270,000 compounds, of which about 5,800 (2.1%) were called active. The inconclusive results got no clear call from the source; some entries with a clear call stand among them for comparison. The call rests on the fitted dose curve; in most records, active means well fitted inhibition curve with a large enough effect; inconclusive means small, poorly fitted or top-dose-only effect; inactive means flat fitted curve, though single readings scatter. Potencies of inconclusive entries are doubtful fits and often do not repeat.

What follows are compounds tested against Microtubule-associated protein tau (Homo sapiens) (UniProt P10636) (assay: qHTS for Inhibitors of Tau Fibril Formation, Thioflavin T Binding). Conditions: recombinant tau K18 P301L, heparin-induced fibrillization, ThT fluorescence; series mostly up to 57.4 µM; activity, negative = inhibition: at the top concentration.
In short: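 Fibril formation assay: tau K18 P301L at 15 uM with trace Alexa 594 label, heparin inducer 20 uM, pH 7 sodium acetate buffer, 37 C for 6 hr; endpoint ThT signal.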
Further: nearly all actives have a fitted effect of over 55% in size.
On the % scale 0 is the no-effect control and ±100 the full control effect; potency means the concentration at half of the fitted maximal effect; tags describe the fitted curve by direction and shape.

Chain of UniProt P10636 (P10636 whole entry, looked up): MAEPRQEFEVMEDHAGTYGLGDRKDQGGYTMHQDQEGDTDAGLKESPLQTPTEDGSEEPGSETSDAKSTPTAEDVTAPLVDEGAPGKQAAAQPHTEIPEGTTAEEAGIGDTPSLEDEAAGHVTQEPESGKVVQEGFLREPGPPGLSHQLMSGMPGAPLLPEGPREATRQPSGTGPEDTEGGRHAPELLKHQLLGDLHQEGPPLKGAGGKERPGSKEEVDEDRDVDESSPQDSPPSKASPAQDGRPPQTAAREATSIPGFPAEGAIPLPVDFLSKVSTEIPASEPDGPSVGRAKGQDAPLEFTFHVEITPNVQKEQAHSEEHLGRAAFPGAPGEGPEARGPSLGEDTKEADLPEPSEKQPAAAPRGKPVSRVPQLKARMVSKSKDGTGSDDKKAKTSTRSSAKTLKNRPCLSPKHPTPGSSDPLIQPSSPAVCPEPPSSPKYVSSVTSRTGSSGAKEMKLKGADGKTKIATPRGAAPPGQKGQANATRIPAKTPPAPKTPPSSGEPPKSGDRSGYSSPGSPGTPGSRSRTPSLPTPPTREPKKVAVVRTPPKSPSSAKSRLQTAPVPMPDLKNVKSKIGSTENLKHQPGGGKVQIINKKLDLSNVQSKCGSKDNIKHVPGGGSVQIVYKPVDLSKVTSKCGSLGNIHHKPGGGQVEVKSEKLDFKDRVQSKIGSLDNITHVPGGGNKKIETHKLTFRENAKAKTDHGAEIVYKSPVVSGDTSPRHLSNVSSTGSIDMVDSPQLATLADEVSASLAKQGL

Compound | Potency | activity, negative = inhibition
Cc1[nH]c2ccccc2c1/C=N/NC(=S)NC(C)C | inconclusive: 15.8 µM [inhibitor, partial curve] | 
CN(C)c1ccc(CNS(=O)(=O)c2csc(C(N)=O)c2)cc1 |  | inactive: -4.48%
CC[C@]1(O)C[C@@H]2CN(CCc3c([nH]c4ccccc34)[C@@](C(=O)OC)(c3cc4c(cc3OC)N(C)C3[C@]45CCN4CC=C[C@](CC)(C45)[C@@H](OC(C)=O)[C@]3(O)C(=O)OC)C2)C1 (stereo partly drawn) | inconclusive: 12.6 µM [inhibitor, partial curve, poor fit] | 
Cc1ccc(NC(=O)c2cc(N3C(=O)C4CCCCC4C3=O)ccc2N2CCOCC2)cc1 (stereo not drawn) |  | inactive: -7.48%
Cc1cc(C)c2nc(NNC(=O)c3ccc(S(=O)(=O)N4CCCC(C)C4)cc3)sc2c1 (stereo not drawn) | inconclusive: 10 µM [inhibitor, partial curve] | 
CCOc1cc(Cl)c(S(=O)(=O)n2cc(C)nc2CC)cc1Cl | inconclusive: 35.5 µM [inhibitor, single point] | 
COc1ccc(S(=O)(=O)NCCSCc2ccco2)cc1 | inconclusive: 31.6 µM [inhibitor, single point] | 
COc1cccc(NC(=O)c2oc3ccc(S(=O)(=O)N4CCC5(CC4)OCCO5)cc3c2C)c1 |  | inactive: 3.48%
Cc1ccccc1CSCc1ccc(C(=O)NCCc2ccccc2)o1 | inconclusive: 12.6 µM [inhibitor, partial curve] | 
COc1ccc(Cn2nnnc2C(c2ccccc2)N2CCN(C3CCCC3)CC2)cc1 (stereo not drawn) |  | inactive: -0.051%
CC(C)(C)c1ccc(OCc2cc(=O)n3c4c(sc3n2)CCCC4)cc1 | inconclusive: 3.55 µM [inhibitor, partial curve] | 
CC(C)(C)c1ccc(-n2nc(C#N)c(Cl)cc2=O)cc1 | inconclusive: 7.94 µM [inhibitor, full curve] | 
Clc1ccc(/C=N/NC(=Nc2ccccc2)c2ccccn2)c(Cl)c1 | inconclusive: 39.8 µM [inhibitor, partial curve] | 
O=C1C(=O)N(c2ccc(O)cc2)C(c2ccccc2[N+](=O)[O-])/C1=C(\O)c1ccccc1 (stereo not drawn) | inconclusive: 17.8 µM [inhibitor, partial curve] | 
COc1cccc(-n2c(SCc3cc(=O)oc4cc(O)c(O)cc34)nc3ccccc3c2=O)c1 | active: 25.1 µM | 
COc1ccc(C(=O)NCCc2nc3ccccc3[nH]2)cc1 |  | inactive: -14.4%
O=C1CCC(C(=O)Nc2ccccc2N2CCOCC2)=NN1 |  | inactive: 3.84%
N#C/C(=C\c1ccc([N+](=O)[O-])o1)C(=O)Nc1ccc(F)cc1 | active: 14.1 µM | 
O=C1CC(c2ccc3c(c2)OCO3)c2ccc(O)cc2O1 (stereo not drawn) |  | inactive: -5.29% [at 81.4 µM]
COc1ccc(N2CC(C(=O)Nc3ccccc3-c3nc(-c4ccc(C)cc4)no3)CC2=O)cc1 (stereo not drawn) | inconclusive: 8.91 µM [inhibitor, partial curve] | 
Cc1ccc(NCc2nnc(SCC(N)=O)n2CC2CCCO2)c(C)c1 (stereo not drawn) |  | inactive: -3.15%
Cc1cc(C)c(C#N)c(Sc2ccccc2N)n1 |  | inactive: -17.1%
COc1ccc(-c2noc(CSc3nnc(C)n3-c3ccc(C)cc3)n2)cc1 | inconclusive: 39.8 µM [inhibitor, single point] | 

Compound | Potency | activity, negative = inhibition
O=C(Nc1cc(Cl)ccc1O)c1cc2nc(-c3ccc4c(c3)OCO4)cc(C(F)(F)F)n2n1 | inconclusive: 8.91 µM [inhibitor, partial curve] | 
Cc1cccc2c(CCNC(=O)c3ccc([N+](=O)[O-])cc3)c[nH]c12 | inconclusive: 15.8 µM [inhibitor, partial curve] | 
COc1ccc(C2C(C#N)=C(N)Oc3c2c(-c2ccccc2)nn3-c2ccccc2)c(OC)c1OC (stereo not drawn) | inconclusive: 17.8 µM [inhibitor, partial curve] | 
CN(C)c1ccc(NC(=O)C2(c3cccs3)CCOCC2)cc1 | inconclusive: 35.5 µM [inhibitor, single point] | 
COc1cc2c(cc1OC)C(c1ccc(-c3ccccc3Cl)o1)=NCC2 | inconclusive: 15.8 µM [inhibitor, partial curve] | 
CN(C)S(=O)(=O)c1ccc(NC(=O)/C=C/c2ccccc2Cl)cc1 |  | inactive: 5.6%
CCc1ccccc1NC(=O)COC(=O)c1cn(CC)c2nc(C)ccc2c1=O |  | inactive: -4.35%
O=C(Nc1ccc(N2CCN(C(=O)c3ccco3)CC2)cc1)c1cccnc1Cl | inconclusive: 20 µM [inhibitor, partial curve] | 
COc1ccc(Nc2nc(C)c(-c3ccccc3)s2)cc1 | active: 5.62 µM | 
COC(=O)c1c(NS(=O)(=O)Cc2ccccc2)sc2c1CCCC2 | inconclusive: 35.5 µM [inhibitor, partial curve] | 
CCOC(=O)N1CCN(c2ccc(O)cc2)CC1 | inconclusive: 35.5 µM [inhibitor, partial curve] | 
Cc1sc2c(c1C)C(O)=C(C(=O)Nc1ccccc1)S(=O)(=O)N2C | inconclusive: 14.1 µM [inhibitor, partial curve, poor fit] | 
COC(=O)C1=C(C(=O)OC)[C@@H]2N(Cc3ccccc3)c3ccccc3[C@@]23C[C@@H](C(=O)OC)N(C(=O)COCc2ccccc2)C3=N1 | inconclusive: 5.62 µM [inhibitor, partial curve] | 
Cc1cccc(C(=O)NC(NC(=S)Nc2ccc(S(N)(=O)=O)cc2)C(Cl)(Cl)Cl)c1 (stereo not drawn) |  | inactive: 10.1%
COC(=O)c1ccc(COC(=O)c2ccc(N(C)C)cc2)cc1 |  | inactive: -8.79%
CCc1ccc(C(=O)c2cn(Cc3ccccc3)c3cc(OC)c(OC)cc3c2=O)cc1 | inconclusive: 17.8 µM [inhibitor, single point] | 
Cc1ccccc1N=Nc1ccc(O)c2ncccc12 | inconclusive: 3.55 µM [inhibitor, full curve] | 
CN(/N=C/c1ccc(O)cc1O)c1ncc(C(F)(F)F)cc1Cl | inconclusive: 25.1 µM [inhibitor, partial curve, poor fit] | 
CCOC(=O)C1=C(C)NC(C)=C(C(=O)OCC)C1C(=O)OCC(=O)N1CCc2ccccc21 |  | inactive: -5.58%
O=C(COc1ccc(F)cc1)OCc1cc(=O)n2nc(C3CC3)sc2n1 |  | inactive: -8.21%
O=C(/C=C/Nc1ccccc1F)c1cccs1 | inconclusive: 20 µM [inhibitor, partial curve] | 
Nc1ccc(N2CCN(C(=O)c3ccco3)CC2)cc1 | inconclusive: 17.8 µM [inhibitor, partial curve] | 
CCn1ncc(CNC(=O)CCCSc2nc(-c3ccco3)cc(C(F)(F)F)n2)c1C | inconclusive: 35.5 µM [inhibitor, single point] | 

Compound | Potency | activity, negative = inhibition
CCn1c(SCC(=O)OC)nc2sc3c(c2c1=O)CCC3 | inconclusive: 31.6 µM [inhibitor, partial curve] | 
COc1cc(/C=C2/C(=N)N3C=CSC3=NC2=O)ccc1OCCCOc1ccccc1C | inconclusive: 4.47 µM [inhibitor, full curve] | 
COc1cc(/C=C2/C(=N)N3OC(C)=CC3=NC2=O)ccc1OC(=O)c1ccco1 | inconclusive: 6.31 µM [inhibitor, partial curve] | 
CCOc1ccc(NC(=O)Cn2cncc2-c2ccc([N+](=O)[O-])cc2)cc1 | inconclusive: 3.55 µM [inhibitor, full curve] | 
COc1ccc(-c2nnc(OCc3nc4ccccc4n3C)c3ccccc23)cc1 | inconclusive: 11.2 µM [inhibitor, partial curve] | 
COc1cccc(N=Cc2nc(-c3ccccc3)oc2OC(C)=O)c1 | inconclusive: 17.8 µM [inhibitor, partial curve] | 
COc1ccc(N2CCN(Cc3cc(=O)oc4cc(C)c(Cl)c(C)c34)CC2)cc1 | inconclusive: 1.12 µM [inhibitor, partial curve] | 
O=C(Nc1cccc(F)c1)c1ccc(-c2ccccc2Cl)o1 |  | inactive: 1.3%
O=C(c1cc(O)c(O)c([N+](=O)[O-])c1)c1ccccc1F | inconclusive: 20 µM [inhibitor, partial curve] | 
O=C(CCc1nc2cccnc2n1Cc1ccccc1)NCCc1ccc(Cl)cc1 | inconclusive: 17.8 µM [inhibitor, partial curve] | 
COc1ccccc1OCCOc1ccc(C(=O)c2ccccc2)cc1 | inconclusive: 39.8 µM [inhibitor, single point] | 
COc1ccc(NC(=O)Nc2ccc(N(C)C)cc2)cc1 | active: 12.6 µM | 
COc1ccc(-c2ccc(/C=C3/C(=N)N4C=CSC4=NC3=O)o2)c([N+](=O)[O-])c1 | active: 1.78 µM | 
Cc1ccc(-c2nnc(CSc3nncn3N)o2)cc1 |  | inactive: -9.95%
CCOC(=O)NC(Nc1ccc(S(N)(=O)=O)cc1)(C(=O)OCC)C(F)(F)F (stereo not drawn) | inconclusive: 44.7 µM [inhibitor, single point] | 
O=[N+]([O-])c1ccc(N2CCCCCC2)c(S(=O)(=O)N2CCCCC2)c1 |  | inactive: -13.2%
COc1ccccc1-c1nc(C#N)c(N2CCCCCC2)o1 | inconclusive: 35.5 µM [inhibitor, single point] | 
CCn1c(C(=O)NCc2ccccc2)cc2sc(Cl)cc21 | inconclusive: 7.08 µM [inhibitor, partial curve] | 
CN1CCc2c(sc(/N=C/c3cc(Cl)ccc3O)c2C#N)C1 | inconclusive: 12.6 µM [inhibitor, partial curve] | 
O=C(N/N=C1\CCCc2ccccc21)c1ccc([N+](=O)[O-])cc1Cl | inconclusive: 3.98 µM [inhibitor, full curve] | 
COc1ccc(NC(=O)c2cccc(OC(F)F)c2)cc1Cl | inconclusive: 10 µM [inhibitor, partial curve] | 
COc1ccccc1NC(=O)N1CCOc2ccccc21 | inconclusive: 17.8 µM [inhibitor, single point] | 
